These results are taken from paper PMC4336329 (PLoS ONE, 2015).

In all, about 310,000 compounds went through this assay and about 14,000 (4.5%) showed an effect of 50% or more. Effects have a minus sign here. This is one part of the list.
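Note: peak tail current of the secondary pulse compared with the same well before compound.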

Chain of human ether-à-go-go-related gene (hERG) potassium channel (Q12809 whole entry, looked up): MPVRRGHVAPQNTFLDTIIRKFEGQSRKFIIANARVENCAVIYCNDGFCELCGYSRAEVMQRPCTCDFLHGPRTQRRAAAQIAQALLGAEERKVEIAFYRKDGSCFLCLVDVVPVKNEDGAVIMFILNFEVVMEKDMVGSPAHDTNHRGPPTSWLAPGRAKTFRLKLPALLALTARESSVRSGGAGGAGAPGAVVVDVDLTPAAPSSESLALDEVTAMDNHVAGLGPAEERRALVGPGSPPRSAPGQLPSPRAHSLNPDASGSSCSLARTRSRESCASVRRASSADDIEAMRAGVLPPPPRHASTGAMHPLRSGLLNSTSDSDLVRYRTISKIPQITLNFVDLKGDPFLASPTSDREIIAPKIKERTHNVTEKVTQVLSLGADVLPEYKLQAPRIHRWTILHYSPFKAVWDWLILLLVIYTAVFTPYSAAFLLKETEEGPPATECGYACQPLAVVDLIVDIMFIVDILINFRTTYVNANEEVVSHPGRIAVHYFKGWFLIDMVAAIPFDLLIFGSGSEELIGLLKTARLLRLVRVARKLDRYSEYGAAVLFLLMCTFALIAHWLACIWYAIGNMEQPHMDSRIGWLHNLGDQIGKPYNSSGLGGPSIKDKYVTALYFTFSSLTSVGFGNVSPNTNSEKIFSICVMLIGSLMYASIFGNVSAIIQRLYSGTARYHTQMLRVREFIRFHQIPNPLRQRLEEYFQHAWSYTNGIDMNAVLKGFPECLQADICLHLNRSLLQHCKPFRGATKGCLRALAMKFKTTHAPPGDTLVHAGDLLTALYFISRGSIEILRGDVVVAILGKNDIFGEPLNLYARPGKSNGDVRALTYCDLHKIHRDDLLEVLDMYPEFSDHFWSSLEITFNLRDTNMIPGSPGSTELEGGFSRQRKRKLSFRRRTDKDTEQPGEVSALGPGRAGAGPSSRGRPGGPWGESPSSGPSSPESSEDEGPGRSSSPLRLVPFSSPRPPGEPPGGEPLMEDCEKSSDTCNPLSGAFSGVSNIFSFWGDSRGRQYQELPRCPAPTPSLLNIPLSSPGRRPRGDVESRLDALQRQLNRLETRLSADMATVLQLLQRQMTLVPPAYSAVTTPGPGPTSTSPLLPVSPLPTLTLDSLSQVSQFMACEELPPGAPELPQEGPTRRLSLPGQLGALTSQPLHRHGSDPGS

This test concerns the target human ether-à-go-go-related gene (hERG) potassium channel (human, UniProt Q12809). Put plainly: primary screen, population patch clamp on CHO cells stably expressing hERG.
As for `CCNC(=O)CN(c1ccc(F)cc1)S(=O)(=O)c1ccc2c(c1)OCCO2`, the “hERG current change (%, negative = inhibition) at 10uM” value is given as 5.86%.
Under `CC(=O)C1=C(C)Nc2ncnn2C1c1ccccc1` (stereo not drawn) stands 8.77%.
The value for `CC(/C=N/NC(=O)c1ccc(CN2c3cccc4cccc(c34)S2(=O)=O)cc1)c1ccccc1` (stereo not drawn) was 8.83%; that for `O=C(c1cc([N+](=O)[O-])ccc1N1CCOCC1)N1CCOCC1` was 18.1%.
Under `CCN1CCN(c2ccc(S(=O)(=O)N3CCCCC3)cc2NC(=O)c2cccc(Cl)c2)CC1` stands -34.6%; under `CCOC(=O)c1c(-c2ccccc2)oc2ccc(O)c(CN3CCCC3)c12`, -64.3%.
For the compound `CC1(C)CC(NCc2cccc([N+](=O)[O-])c2)CC(C)(C)N1.Cl`, the “hERG current change (%, negative = inhibition) at 10uM” value is listed as 23.4%.
Under `Cc1cnc([N+](=O)[O-])n1CCOC(=O)NC(=O)c1cccc(F)c1` stands 9.21%.
Regarding `CCC(CCC(=O)NNC(=O)Cc1ccc([N+](=O)[O-])cc1)C(=O)O` (stereo not drawn), the “hERG current change (%, negative = inhibition) at 10uM” value was determined as 1.5%.
The value for `CC(C)OC(=O)C1C2C=CC3(CN(Cc4cccs4)C(=O)C13)O2` (stereo not drawn) was 17.4%.
Regarding `CCOC(=O)C1C(=O)NC(N2CCCCC2)=NC1C(C)C` (stereo not drawn), the “hERG current change (%, negative = inhibition) at 10uM” value amounted to 1.14%.
As for `COc1ccccc1/C=C/C(=O)NCc1cccnc1`, the “hERG current change (%, negative = inhibition) at 10uM” value amounted to 0.24%.
The value for `CCOC(=O)c1ccc(CNC(=O)Cn2nnc(-c3ccc(C)cc3)n2)o1` was -10.1%; that for `Cc1cc(C(=O)OCC(=O)NC2CC2)ccc1[N+](=O)[O-]` was -12.4%.
Under `Cn1c(SCc2ccccc2)nnc1-c1ccc2c(c1)OCO2` stands -22.7%; under `Cc1cc(CN(C)C(=O)CC2C(=O)NCCN2Cc2ccc(-c3ccccc3)cc2)on1` (stereo not drawn), 14.5%; under `C=CCOc1ccc(NC(=O)C2CC(=O)N(C(C)C)C2)cc1` (stereo not drawn), 11.7%.
The value for `COc1cc(/C=N/NC(=O)CSc2ccccn2)ccc1O` was -1.89%; that for `O=S1(=O)[C@H]2C[C@@H]3C=C[C@@]2(CN1Cc1ccc(Cl)cc1)O3` was -8.32%.
Take `CN(C)c1nc(N(C)C)nc(N(C#N)CN2C(=O)c3ccccc3C2=O)n1`: the “hERG current change (%, negative = inhibition) at 10uM” value is reported as 1.63%.
As for `COc1cc(OC)c(NC(=O)CCNS(=O)(=O)c2ccc3c(c2)oc(=O)n3C)cc1Cl`, the “hERG current change (%, negative = inhibition) at 10uM” value turned out to be 13.9%.
The value for `Cn1c(=O)n(Cc2ccccc2)c(=O)c2c1nc1n2CCN1Cc1ccco1` was -36.7%; that for `O=C(COC(=O)[C@@H]1CC(O)CN1S(=O)(=O)c1ccc(Cl)cc1)NC(=O)NCc1ccccc1` (stereo partly drawn) was -30.1%.
Under `COc1cccc(C2CC(c3ccc(Cl)cc3)Nc3nc(N)nn32)c1` (stereo not drawn) stands -16.1%.
Under `Cc1[nH]c2ccccc2c1SCC(=O)N1CCOCC1` stands 8.55%.
On to `COCCNC(=S)N1CCN(c2ccc(Cl)cc2)CC1`, for which the “hERG current change (%, negative = inhibition) at 10uM” value is given as -12.9%.
For the compound `COc1ccc(NS(=O)(=O)c2cccc(-c3nnc(-c4ccccc4)o3)c2)cc1`, the “hERG current change (%, negative = inhibition) at 10uM” value is -20.6%.
With `Nc1ccc(S(=O)(=O)Nc2ncccn2)cc1`, the “hERG current change (%, negative = inhibition) at 10uM” value is 23.9%.
The value for `CCc1nc2ccc(C(=O)NCCCN3CCN(c4ccccc4F)CC3)cc2nc1CC` was -49.8%; that for `Cc1cc(NC(=O)c2cc(CC(C)C)on2)n(-c2ccccc2)n1` was 9.57%.
The value for `NCCCC[C@H]1CNC(=O)C(=O)N1CCc1cccc2ccccc12` was 3.03%; that for `Br.COc1ccc(N=c2scc(-c3ccc(OC)cc3)n2CCO)cc1` was 2.85%.
Consider `COC(=O)c1ccc(N2CCN(C(=O)C3CC3)CC2)c([N+](=O)[O-])c1`, for which the “hERG current change (%, negative = inhibition) at 10uM” value is on record as -7.61%.
Under `Cc1cccc(NC(=O)c2c([N+](=O)[O-])cnn2C)c1` stands 16.9%; under `COC(=O)c1ccc(C2/C(=C(\O)c3cccc(OC)c3)C(=O)C(=O)N2CCCN(C)C)cc1` (stereo not drawn), -0.614%; under `Cc1ccccc1N1CC(C(=O)Nc2ccc(S(=O)(=O)N3CCCC3)cc2)CC1=O` (stereo not drawn), 3.59%.
Under `O=c1oc2ccccc2cc1-c1nc(-c2cccs2)cs1` stands 7.87%; under `CN(C1CCCCC1)S(=O)(=O)c1ccc2c(c1)c(=O)c(C(=O)NCCCN1CCCC1)cn2C`, -25.6%.
The value for `Cc1ccccc1C(=O)Nc1cccc(C(=O)N/N=C/c2cc(Cl)cc([N+](=O)[O-])c2O)c1` was 7.34%.
With `Cc1nnc(NC(=O)CCC(=O)NCc2ccco2)s1`, the “hERG current change (%, negative = inhibition) at 10uM” value came out at 13.5%.
For the compound `COc1ccc(-c2csc(NC(=S)NC(=O)c3ccc(S(=O)(=O)N(C)C)cc3)n2)cc1OC`, the “hERG current change (%, negative = inhibition) at 10uM” value came out at 6.31%.
Under `Ic1ccccc1CN[C@@H]1C2CCN(CC2)[C@@H]1C(c1ccccc1)c1ccccc1.O.O=C(O)C(=O)O` stands -69.7%.
